# The other results are listed elsewhere or left out.
# Tested on: PfSIP2 AP2 domain 1 (GST-tagged)
# Test: gcPBM binding intensity (ln(normalized median fluorescence intensity)); higher = stronger DNA binding
# Outline: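 Alexa488 anti-GST antibody, scanned at 488 nm, detected GST-tagged P. falciparum DNA-binding domains that had been expressed in E. coli and incubated for 1 h on an Agilent 4 × 180k array. The array carried primer-extended double-stranded 36-bp intergenic genomic probes and negative controls. Binding intensity is the highest Masliner-normalised natural-log median intensity across replicate spots of either orientation of each probe.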
row,Sequence,gcPBM binding intensity (ln)
1,AATGTGAAAAAAAAAAGTACAGACCTAATCAAAAAA [XGTACX_site2486],6.81
2,AAAAAAAATACATACACACACACACCCACATATATA [CACACA_site3561],7.05
3,AATATAAAAAAAGAGGAGGGATGGTATACTTGTGGT [CACACA_negctrl_site986],7.09
4,TTAAAGCTGACATATACACACATACATAAATTCATA [CACACA_site5377],7.06
5,TATACATATATTATATGTACATATATATATAATATA [XGTACX_site2942],7.26
6,GGACAAGTTTTTTACATAAATAAAAAAAATAAAAAA [XGTACX_negctrl_site125],6.99
7,ATATATATATAATAAACACACAAATAGATATAACAT [CACACA_site3715],8.39
8,CCCCCCCACAGACACACACACATACATACCACATAT [CACACA_site2306],9
9,ATAATGTAGAACTAGAGTACATAAAAAAATAAACAT [XGTACX_site5205],7.57
10,TTTTTTTTTTTTTTTTTTTGTCTTATATATTACGGA [CACACA_negctrl_site322],6.89
11,GCTACACAATTTTTTAGTACACACATATAAATATAT [XGTACX_site3131],7.34
12,TATATATTATCAAGTGGACACACGAAAAAAAGGAAA [CACACA_site3741],7.09
13,TTTTTCATATTATACTTTTATATACATATATAAAAA [XGTACX_negctrl_site281],7.23
14,TAAAGATTGTTCAGTGCATGTTGGCCTGTAAATGGA [TGCATGCA_site315],7.59
15,GTAATTTTGAGATGATGTACATATTTTTTCCTTGTC [XGTACX_site4103],7.01
16,TAAGATATATTTTTTTGTACACATAATAAAATAATA [XGTACX_site8938],7.01
17,AAAAGAAACTTATTTACGCACACTTTATTGCATGTT [CACACA_site3887],6.79
18,GATAAATCATATATAACACACATATGAATATTACAA [CACACA_site1321],6.93
19,ATGTTATATATGTATTGTACGTATTTTGTATATTAT [XGTACX_site6607],7.4

row,Sequence,gcPBM binding intensity (ln)
1,AGTGTTTTTTATAAAGTGCAATATAAAAACAAAATG,8.59
2,AATTTTTTTTTATTGTGTACTTATTTTTTTATATTT [XGTACX_site917],7.44
3,TTTTATTTCATTTGTTGTACTTTCAAAATATTATTA [XGTACX_site2192],7
4,AAGAATAAAGAATGGTGTACATGCATATAAAATATT [XGTACX_site5707],7.01
5,CAACATATGCATATGTGTACATATTTTATTTTCAAC [XGTACX_site2237],7.23
6,ACATACATATGTAAATGTACAAAATATCCATAGATT [XGTACX_site2782],6.81
7,ATATACTCATTAATAACACACAATATGATAACAAAT [CACACA_site5913],7.12
8,AATATATTTCATTTTTGTACACACAACGTTGGAGGG [XGTACX_site6461],7.27
9,TATATATATTTATGCACACAAAATATATTATAGAAT [CACACA_site3740],7.48
10,AATGTTTATTTTGTTTGTACATAAAATGAATAAAAT [XGTACX_site1456],7.17
11,GTTATATATTTTTATGCATGCATTTTTAAATATATA [TGCATGCA_site175],7.39
12,ATACATAAATTTTGTACACACAAAAAAAAAAAAGCT [CACACA_site1351],7.03
13,TTTATATATATAAATATGTAGATAACAATATTCTGA [TGCATGCA_negctrl_site554],6.89
14,TTATTCCTTTTCCTTTTTTTTTTTTAACCAAAAAAA [CACACA_negctrl_site309],7.13
15,AAAATATACATATATGCATGCATATAAATAAAAAAA [TGCATGCA_site812],7.2
16,GATAAAACGTTATGCACACGTACGTGAGTATTTATA [CACACA_site1570],7.17
17,AATGATAAATAAAAAGCATGCAACAAATAAAAATAA [TGCATGCA_site453],7.07
18,AACAAAACTTTGGATACATGCAAAATTTTTAAATGA [TGCATGCA_site249],6.69
19,GTTTTTTTGTTTTAAAGTACTTAAAAAAAAAATATA [XGTACX_site6998],7.22

row,Sequence,gcPBM binding intensity (ln)
1,GGTATACACAAGTATACACACATATAAATATAAATA [CACACA_site7511],6.98
2,TCTTTTAACACATGTGATATTATTTAATAACAATAA [CACACA_negctrl_site339],6.91
3,TGTACATATATATATATATATGTTACTGAAATAAAA [CACACA_negctrl_site1658],7.53
4,AAGAATAACTTTTATACATGCAGCATAATATATTGT [TGCATGCA_site605],6.93
5,CTTTTATAATTCATATGTACTTATTTTTAACATAGG [XGTACX_site7808],7.07
6,AATAACCACAGACACACACACATATAAATATAAATA [CACACA_site7631],7.15
7,GTGATTAATATATACACACATACATATATATATATA [CACACA_site2817],9.13
8,ATATATATGTATACATGTACATATTTTATTATGTGC [XGTACX_site7207],7.06
9,TTACAGATATTTATCTGTACATATATTTAAAAATAT [XGTACX_site7431],6.9
10,TAATTTTTTTAAAAGCGTACATTTAAAAAAAAATAT [XGTACX_site2736],7.26
11,AAAAGTAAAAAAAAAAAAAGTAAAAAAAAAAAAAAA [CACACA_negctrl_site389],6.8
12,TTTTTAAATTCTTTAATATGTTTTATATATCAAAAT [CACACA_negctrl_site75],6.7
13,TCTTATCATTTTAAATCACACACATATATATATATA [CACACA_site8925],9.54
14,TTATTTTATTTAGGGTGTACCCAATTTTTCCATATG [XGTACX_site4957],6.78
15,ACTGTAATATTGAAAGTGCATTAAAGTGTATATTAT [GTGCAC_site9970],8.04
16,ATTTATATTTATAAATGTACACATATATATTTCATT [XGTACX_site2723],7.09
17,TCCTATAATTTTTTAATCAAAATATTTTATCCTTTG [CACACA_negctrl_site793],6.82
18,AAAAATTTTTTACATCGTACAGATATATATAATAAA [XGTACX_site3331],7.05

# From the supplement of paper PMC11417369
